Experimental data from PubChem BioAssay AID1240 (Sanford-Burnham Center for Chemical Genomics, 2008).
About 800 (1.6%) of roughly 50,000 compounds showed an effect of 50% or more. Some of the results follow.

What follows are compounds tested against Bcl-2-like protein 10 (Homo sapiens) (UniProt Q9HD36) (assay: Phenotype converters, Bcl-B/TR3 peptide binding displacement, primary biochemical FP (AID 1240;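 note: 0% = Bcl-B with tracer peptide and DMSO and 100% = tracer peptide lacking Bcl-B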)). Conditions: GST-Bcl-B / FITC-TR3 peptide fluorescence polarization; stronger effect = higher value; compound at 3.75 mg/L.
Sequence of UniProt Q9HD36 (Q9HD36 whole entry, looked up): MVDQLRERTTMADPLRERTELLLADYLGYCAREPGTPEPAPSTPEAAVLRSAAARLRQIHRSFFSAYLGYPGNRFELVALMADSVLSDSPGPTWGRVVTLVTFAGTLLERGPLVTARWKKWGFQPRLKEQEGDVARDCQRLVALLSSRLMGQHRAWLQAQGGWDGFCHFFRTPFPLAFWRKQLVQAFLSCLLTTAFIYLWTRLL

Row | SMILES | displacement [%]
1 | COc1ccc(Cc2cnc(NC(=O)c3ccc([N+](=O)[O-])cc3)s2)cc1 | 7.8
2 | O=C(O)c1ccc(N2CCC(c3ccccc3)=N2)cc1 | -1.5
3 | O=C1/C(=C/c2ccc3c(c2)OCO3)SC(=NCc2ccccc2)N1Cc1ccccc1 | 11.4
4 | CSc1nc(C)cc(-n2cc(Br)c(=O)[nH]c2=O)n1 | -4.2
5 | COc1ccc(OCCCN2CCOCC2)cc1 | 5.5
6 | COC(=O)C1=NN(C(=O)c2ccc(Cl)cc2)C(O)(c2ccccc2)C1 (stereo not given) | -7.4
7 | O=C(O)/C=C/c1cccc(NC(=O)CCc2ccccc2)c1 | -7.2
8 | COc1ccc(NC(=O)c2ccc(CN(c3ccccc3)S(C)(=O)=O)cc2)cc1OC | -5.7
9 | Cc1ccc(/C(O)=C2/C(=O)C(=O)N(CCCCCC(=O)O)C2c2ccc([N+](=O)[O-])cc2)cc1 (stereo not given) | -21
10 | CCC(C)c1ccc(NC(=O)Cc2ccccc2OC)cc1 (stereo not given) | 9.7
11 | CC(=O)c1ccc(NC(=O)C2CCCCC2)cc1 | 1.1
12 | Cc1cccc(C(=O)NCC2CCCO2)c1 (stereo not given) | -46.5
13 | COc1cc(NC(=O)c2ccc(C(C)(C)C)cc2)ccc1NC(=O)c1cc2ccccc2o1 | 0.8
14 | COc1ccc(-c2nc(NC(=O)c3ccco3)sc2-c2ccc(OC)cc2)cc1 | -7.7
15 | CC(C)c1ccc(/C=C/C(=O)N2CCN(c3ccc([N+](=O)[O-])cc3)CC2)cc1 | -6.7
16 | O=C1c2cccc3c([N+](=O)[O-])ccc(c23)C(=O)N1n1cnnc1 | 36.8
17 | Cc1cc(C)nc(NS(=O)(=O)c2ccc(NC(=O)CSc3nccn3C)cc2)n1 | 1.2
18 | CCc1c(C)c2ccc(OCC(C)=O)cc2oc1=O | 5.9
19 | O=C(Nc1ccccc1F)c1cc2cc([N+](=O)[O-])ccc2oc1=O | 12
20 | O=C(c1cccc(Br)c1)N1CCN(c2ccccn2)CC1 | -1.6
21 | Cc1occc1C(=O)Nc1sc2c(c1C(N)=O)CCC(C(C)(C)C)C2 (stereo not given) | 45.9
22 | COc1ccc(/C=N/NC(=O)Cn2cnc3ccccc32)c(OC)c1OC | -0.6
23 | Cc1cccc(NCCC(=O)c2cccs2)c1C | 4.7
24 | CCOC(=O)C1=C(C)N(c2ccccc2)C(=S)NC1c1ccc(Br)cc1 (stereo not given) | 5.1
25 | COc1ccc(C2/C(=C(/O)c3ccc(Cl)cc3)C(=O)C(=O)N2c2nccs2)cc1OC (stereo not given) | 10.3
26 | O=C(CCCCCN1C(=O)c2cccc3cccc(c23)C1=O)NCCCO | 1.4
27 | O=C(Nc1cccnc1)Nc1ccccn1 | 18.1
28 | O=c1[nH]c(NCCO)nc2ncn(Cc3ccccc3)c12 | 3.9
29 | CCCCOP(=O)(OCCCC)C(Nc1ccccc1)c1ccc(OC)cc1 (stereo not given) | 52.1
30 | COc1ccc(CC(=O)Nc2ccc(O)c(-c3nc4cc(Cl)ccc4o3)c2)cc1OC | 30.5
